This is an account of results in patent US20260207762A1.

For this assay, the target named is human PD-1 expressed on cells (human) (UniProt Q15116). Put plainly: flow cytometry, CHO-S hPD-1 cells.
Sequence of UniProt Q15116 (Q15116 25-288): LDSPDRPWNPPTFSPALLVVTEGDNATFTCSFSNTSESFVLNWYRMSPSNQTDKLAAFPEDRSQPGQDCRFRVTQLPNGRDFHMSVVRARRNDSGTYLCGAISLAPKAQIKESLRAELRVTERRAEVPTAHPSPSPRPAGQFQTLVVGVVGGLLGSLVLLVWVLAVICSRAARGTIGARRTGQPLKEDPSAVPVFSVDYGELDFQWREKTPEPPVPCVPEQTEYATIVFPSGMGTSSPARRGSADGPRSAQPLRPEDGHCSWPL

B1: z8-XVT458 (antibody, part only; not given: light chain variant, part only)
heavy: QVQLVQSGAEVKKPGASVKVSCKASGYTFTNFYIHWVRQAPGQGLEWMGSIYPNYGDTAYNQKFKDRATMTVDKSTSTAYMELRSLRSDDTAVYYCARGYSYAMDYWGQGTTVTVSS[not shown - human IgG1 constant region]
Consider B1, for which the Top MFI is 0 MFI.
